PubChem BioAssay AID485313 (National Center for Advancing Translational Sciences (NCATS), 2010)
Where “and” joins values, the source holds several entries; their conditions need not be identical. Identical values can stand only once. In all, about 320,000 compounds went through this assay and about 7,600 (2.4%) were called active. The inconclusive results got no clear call from the source; some entries with a clear call stand among them for comparison. Calls follow the shape of the dose curve; as a rule, active = well fitted activation curve with a large enough effect; inconclusive = small, poorly fitted or top-dose-only effect; inactive = no such curve, though single readings can be large or run the other way. Where the call is inconclusive, the potency comes from a doubtful curve fit.

assay: qHTS Assay for NPC1 Promoter Activators; conditions: Huh7 NPC1 promoter luciferase reporter, 24 h; series mostly up to 9.22 µM; also: nearly all actives have a fitted effect of over 60% in size;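 as to activation: reporter is driven by a mutant NPC1 promoter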
How it was run: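 Cells: Huh7 expressing luciferase under the NPC1 promoter, 1500/well. Seeded 2 h, compound added, incubated 24 h at 37 °C. Luciferase reagent, 10 min ambient, then luminescence.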
Potency is read from the fitted curve at half-maximal effect; tags tell the direction and shape of the fitted curve.

Structure (SMILES) | Potency
O=C(N/N=C1\C(=O)c2cccc3cccc1c23)c1ccc(O)cc1 | inactive
CC1CCc2nc(NC(=O)Cc3cccs3)sc2C1 (centres undefined) | active: 3.16 µM
c1ccc(-c2nnc(-c3ccncc3)o2)cc1 | inconclusive: 2.82 µM [activator, partial curve]
Cc1nn(-c2ccccc2)c(C)c1C(=O)OCC(=O)N(C)C1CCS(=O)(=O)C1 (centres undefined) | inconclusive: 2 µM [activator, partial curve]
O=C(Nc1ccc(Cl)c(Cl)c1)C1=Cc2ccccc2OC1 | inconclusive: 2.82 µM [activator, partial curve]
CCOc1ccc2cc(C3CC(c4ccco4)=NN3S(C)(=O)=O)c(Cl)nc2c1 (centres undefined) | inactive
Cc1cc(C(=O)Nc2ccccn2)no1 | inconclusive: 3.16 µM [activator, partial curve]
CCCc1cc(=O)oc2c(C)c(OCC(=O)NCCCN3CCOCC3)ccc12 | inactive
Cc1c(/C=C/C(=O)c2ccc(Cl)s2)cnn1C | inconclusive: 5.62 µM [activator, single point]
Cc1c(-c2ccccc2)nnn1-c1ccc(F)cc1F | inconclusive: 3.55 µM [activator, single point]
N#C/C(=C\c1ccc[nH]1)C(=O)Nc1ccccc1Cl | active: 0.708 µM
O=C(CC1CCCCC1)NCc1ccccc1Cl | inconclusive: 3.98 µM [activator, partial curve]
C/C(=N/N=C(/C)c1cccs1)c1cccs1 | inconclusive: 3.98 µM [activator, partial curve]
COc1ccc(C(=O)NCCn2ccc3ccccc32)c(OC)c1 | inconclusive: 2.82 µM [activator, partial curve]
CC(C)CC(=O)Nc1ccc2oc(-c3cccnc3)nc2c1 | inconclusive: 3.55 µM [activator, partial curve]
Cn1nc(C(F)(F)F)cc1-c1ccc(S(N)(=O)=O)s1 | inconclusive: 6.31 µM [activator, single point]
Cc1cccc(CCNC(=O)c2nnc(Cc3ccc(Cl)cc3)o2)c1 | inactive
CN(C)c1cccc(C(=O)OCC(=O)c2ccc[nH]2)c1 | active: 3.16 µM
O=C(O)c1cccc2c(/C=N/Nc3ccccn3)c[nH]c12 | inconclusive: 2 µM [activator, partial curve]
COc1ccc(OCc2cc(C(=O)NC(C)Cc3cnccn3)no2)c(Cl)c1 (centres undefined) | inconclusive: 5.62 µM [activator, single point]
N/C(=N\OC(=O)c1ccccc1Cl)c1cccnc1 | active: 3.55 µM
Oc1ccc(N=Nc2ccc(Br)cc2)c(O)c1 | inconclusive: 2.24 µM [activator, partial curve]
CC(C)(C)NC(=O)CN(Cc1ccc2c(c1)OCO2)C(=O)CCC(=O)Nc1nccs1 | inactive
CC(C)C(=O)Nc1ccc(NC(=S)NC(=O)c2ccccc2F)cc1 | inactive
CCN(CC)c1ccc(NC(=O)c2ccc(Br)o2)cc1 | active: 1.58 µM
CCN(CC)C(=O)CCCOc1ccc(Cl)cc1Cl | active: 3.16 µM
COc1ccc(C(=O)Nc2ccc(C)cn2)c(OC)c1 | inconclusive: 0.794 µM [activator, partial curve]

Structure (SMILES) | Potency
COc1ccccc1/C=N\Nc1ccccc1[N+](=O)[O-] | inconclusive: 5.62 µM [activator, single point]
O=C(O)c1ccc(Nc2cnc3ccccc3n2)cc1 | inconclusive: 3.16 µM [activator, partial curve]
O=C(CNC(=O)c1ccc([N+](=O)[O-])cc1)c1ccccc1 | inconclusive: 2.51 µM [activator, partial curve]
CN(C)/C=N/c1nc2ccc3c(c2s1)CCCC3 | active: 2.51 µM
COc1ccc(-n2c(C)c(C)c3c(NCCCO)ncnc32)cc1 | inconclusive: 2.51 µM [activator, partial curve]
CC1=NN(C(N)=S)C(=O)C1N=Nc1ccc(O)cc1 (centres undefined) | inactive
O=C1COc2ccc(S(=O)(=O)N3CCCCCC3)cc2N1 | inactive
O=C(c1cc2ccccc2oc1=O)N(Cc1ccc(F)cc1)C1CCS(=O)(=O)C1 (centres undefined) | inconclusive: 3.16 µM [activator, partial curve]
COc1ccc(-c2nnc(SCC(=O)N3CCCC3)o2)c(OC)c1 | inconclusive: 3.98 µM [activator, partial curve]
Cn1c(CCNC(=O)c2ccc(F)cc2)nc2ccccc21 | inactive
CCc1ccc(-c2cc(C(=O)Nc3ccc(S(=O)(=O)NC(C)=O)cc3)c3ccccc3n2)cc1 | inconclusive: 5.62 µM [activator, single point]
O=C(NCCNc1ccccc1[N+](=O)[O-])c1cc(F)c(F)cc1Cl | inconclusive: 1.58 µM [activator, partial curve]
Cc1ccc(-c2nc(COC(=O)c3c(C)noc3C)cs2)cc1 | inconclusive: 3.98 µM [activator, single point]
CC(C)COc1ccc(C(=O)Nc2ccccc2[N+](=O)[O-])cc1 | inconclusive: 2.82 µM [activator, single point]
O=C(Nc1scc(-c2ccccc2)c1C(=O)O)c1ccccc1F | inactive
Cc1ccc(C(=O)NN2CCOCC2)cc1[N+](=O)[O-] | inactive
Cc1ccc(-c2cc(-c3ccccc3Cl)[nH]n2)c(O)c1 | inconclusive: 3.16 µM [activator, partial curve]
CCc1nnc(NC(=O)CSc2n[nH]c(-c3ccccc3O)n2)s1 | inactive
CCC(C)(C)NC(=O)c1cc([N+](=O)[O-])ccc1N1CCOCC1 | inactive
O=C(Nc1ccccc1)Nc1csc2ccccc12 | inconclusive: 3.55 µM [activator, single point]
COc1ccc(CC(=O)NNS(=O)(=O)c2ccccc2[N+](=O)[O-])cc1 | inactive
O=[N+]([O-])c1ccccc1N/N=C/c1c[nH]c2ccccc12 | inconclusive: 5.62 µM [activator, single point]
O=C(NCCNC(=O)c1cc(Cl)ccc1Cl)c1cnccn1 | inactive
COc1ccc(NC(=O)c2ccc3c(c2)n(C)c(=O)n3C)cc1 | inactive
CCOC(=O)Nc1nnc(-c2cccc(OC)c2)s1 | inactive
C=CCN1C(=O)c2ccc(C(=O)N(C)CC(=O)Nc3ccccc3C(F)(F)F)cc2C1=O | inactive
O=C(Nc1nnc(CCc2ccccc2)s1)c1cccs1 | inconclusive: 3.16 µM [activator, single point]

Structure (SMILES) | Potency
NS(=O)(=O)c1ccc(CCNC(=O)C(=O)C2C(=O)Nc3ccccc32)cc1 (centres undefined) | inactive
COc1cccc(-c2nnn(CC(C)=O)n2)c1 | active: 2.82 µM
COc1ccc(/C=C/C(=O)NC(=S)Nc2ccccn2)cc1 | active: 1.26 µM
Cc1noc(C)c1COc1ccccc1C(=O)NC(C)c1ccc(Cl)cc1 (centres undefined) | inactive
CCCCNC(=O)C1CCN(Cc2ccc(OCc3ccccc3)cc2)CC1 | inconclusive: 3.55 µM [activator, single point]
N=c1oc2c3c4c(cc2cc1C(=O)Nc1ccccc1)CCCN4CCC3 | inconclusive: 6.31 µM [activator, partial curve]
COc1cccc(OCc2cc(C(=O)NCc3ccccn3)no2)c1 | inconclusive: 2.82 µM [activator, partial curve]
CN(C)CCCNC(CC(=O)Nc1cccc([N+](=O)[O-])c1)C(=O)O (centres undefined) | inconclusive: 1.12 µM [activator, single point]
Clc1ccccc1OCCCOc1cccc2cccnc12 | inconclusive: 5.62 µM [activator, single point]
COc1ccccc1CN(C)C(=O)c1cc(C)nc2ccccc12 | inconclusive: 3.55 µM [activator, single point]
CCN(CC(=O)Nc1c(F)cccc1F)C(=O)CCC(=O)c1ccc(C)cc1 | inactive
Cc1cc(NC(=O)COc2ccccc2)ccc1Cl | inconclusive: 2.51 µM [activator, partial curve]
OC[C@H]1O[C@@H](n2cnc3c(Nc4ccccc4)ncnc32)[C@H](O)[C@@H]1O | inconclusive: 3.55 µM [activator, partial curve] and inconclusive: 14.6 µM [activator, partial curve]
N/C(=N\N=C\c1ccc([N+](=O)[O-])cc1)c1nonc1N | active: 1.58 µM
C/C(=C\c1ccc(C(=O)O)cc1)c1ccc2c(c1)C(C)(C)CCC2(C)C | inconclusive: 8.2 µM [activator, partial curve]
CC1CCCN(c2ccc(C(=O)NCc3cccs3)cn2)C1 (centres undefined) | inconclusive: 2.82 µM [activator, partial curve]
C/C(=N\Nc1ccccn1)c1ccc(C(C)C)cc1 | inconclusive: 3.55 µM [activator, single point]
CN(C)c1ccc(/C=C/C(=O)c2ccc3c(c2)OCO3)cc1 | inconclusive: 4.47 µM [activator, single point]
Cc1cc(C(=O)OC2CCOC2=O)c2ccccc2n1 (centres undefined) | inactive
Cc1sc2nc(SCC(=O)Nc3ccccc3F)[nH]c(=O)c2c1C | inactive
Cc1ccc(NC(=O)COC(=O)c2ccc(Cl)nc2)cc1S(=O)(=O)N1CCCCC1 | inactive
NC(=O)c1oc2ccccc2c1NC(=O)C1COc2ccccc2O1 (centres undefined) | inactive
COc1ccc2oc(C(=O)NCCc3ccccc3)c(C)c2c1 | active: 0.447 µM
C/C(=C\C(=O)c1cccnc1)Nc1ccc(O)cc1 | inconclusive: 3.16 µM [activator, partial curve]
FC(F)(F)c1ccc(N/N=C/c2cccnc2)nc1 | inconclusive: 3.55 µM [activator, single point]
